Measured values: publication PMC4336329 (PLoS ONE, 2015)
Out of some 310,000 compounds screened, about 2,200 (0.71%) showed an effect of 50% or more. The effect is printed as a negative number. The list shows a part of the results.

target: human ether-à-go-go-related gene (hERG) potassium channel (human, UniProt Q12809); experiment: primary screen, population patch clamp on CHO cells stably expressing hERG
Sequence (Q12809 whole entry, looked up): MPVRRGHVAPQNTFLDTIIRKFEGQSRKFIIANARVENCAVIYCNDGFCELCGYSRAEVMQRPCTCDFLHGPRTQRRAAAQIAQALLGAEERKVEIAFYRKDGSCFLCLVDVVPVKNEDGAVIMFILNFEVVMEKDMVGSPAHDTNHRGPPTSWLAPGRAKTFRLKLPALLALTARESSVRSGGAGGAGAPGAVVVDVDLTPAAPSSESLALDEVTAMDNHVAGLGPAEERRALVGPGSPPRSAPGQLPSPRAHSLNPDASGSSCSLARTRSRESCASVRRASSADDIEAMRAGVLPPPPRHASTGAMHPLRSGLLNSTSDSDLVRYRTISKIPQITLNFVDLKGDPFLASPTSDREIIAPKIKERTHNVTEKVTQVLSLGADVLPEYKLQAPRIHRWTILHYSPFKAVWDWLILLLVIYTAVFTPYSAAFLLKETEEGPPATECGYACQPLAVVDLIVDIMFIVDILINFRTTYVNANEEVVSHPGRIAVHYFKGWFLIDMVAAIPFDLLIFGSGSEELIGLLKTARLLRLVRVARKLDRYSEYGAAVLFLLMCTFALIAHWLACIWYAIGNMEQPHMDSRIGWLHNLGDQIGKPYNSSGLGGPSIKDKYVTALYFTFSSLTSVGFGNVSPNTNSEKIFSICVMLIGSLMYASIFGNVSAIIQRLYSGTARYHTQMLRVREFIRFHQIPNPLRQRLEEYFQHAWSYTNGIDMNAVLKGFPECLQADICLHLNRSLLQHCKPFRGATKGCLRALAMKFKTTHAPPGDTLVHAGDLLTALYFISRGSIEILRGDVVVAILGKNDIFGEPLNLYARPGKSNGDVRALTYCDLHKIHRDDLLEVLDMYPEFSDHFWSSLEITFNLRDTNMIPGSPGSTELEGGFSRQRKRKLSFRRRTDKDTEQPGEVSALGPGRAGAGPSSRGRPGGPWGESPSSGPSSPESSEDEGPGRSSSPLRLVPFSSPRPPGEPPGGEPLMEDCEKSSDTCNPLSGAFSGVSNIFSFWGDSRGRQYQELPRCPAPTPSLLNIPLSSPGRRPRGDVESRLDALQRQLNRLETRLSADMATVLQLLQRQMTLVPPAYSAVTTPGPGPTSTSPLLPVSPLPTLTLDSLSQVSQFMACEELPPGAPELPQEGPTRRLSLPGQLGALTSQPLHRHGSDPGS

| Compound | hERG current change (%, negative = inhibition) at 1uM |
| --- | --- |
| Nc1c(-c2cccs2)cnc2c(-c3ccc(F)cc3)cnn12 | 5.91% |
| CC(C)c1ccc(NC(=O)C2C3C=CC4(CN(Cc5cccnc5)C(=O)C24)O3)cc1 (centres unmarked) | 10.1% |
| CCCCn1nnc(NC(=S)NC(=O)c2ccc(OCC)c([N+](=O)[O-])c2)n1 | -13.3% |
| Fc1ccc(NC(=S)N2CCCCC2)cc1 | 14.3% |
| NS(=O)(=O)c1ccc(CNC(=O)c2ccc3c(=O)n4c(nc3c2)CCC4)cc1 | 13.3% |
| COC(=O)C(C(=O)Nc1ccc(OC)cc1)C1CCCCCC1 (centres unmarked) | 4.04% |
| CN(C)c1nc(OCCOC(=O)COc2ccc(Cl)cc2Cl)nc(N(C)C)n1 | 1.41% |
| Cc1ccc(-c2nc(C#N)c(N3CCC(C(N)=O)CC3)o2)cc1 | 3.04% |
| COc1ccc(C(=O)CNc2cccc(F)c2)cc1 | 13.3% |
| CC(=O)c1ccc(-c2ccc(C(=O)Nc3nc(C)c(C(C)=O)s3)o2)cc1 | 1.67% |
| CN(CC(=O)Nc1cccc([N+](=O)[O-])c1)S(=O)(=O)c1ccccc1 | -25.7% |
| Cc1ccc(NC(=O)Cn2nc([N+](=O)[O-])c(Br)c2C)cc1C | 6.53% |
| Cn1nc(C(F)(F)F)c(/C=N/OC(=O)c2ccccc2Cl)c1SCc1ccccc1Cl | 1.56% |
| Cc1ccc(S(=O)(=O)Nc2ccc(C(=O)Nc3ccncc3)cc2)cc1 | 10% |
| O=c1c2ccccc2c(C=NCCCN2CCOCC2)c(O)n1Cc1ccccc1 | 6.61% |
| COc1ccc(C(=O)NC(C)C2CC3CCC2C3)cc1 (centres unmarked) | 6.02% |
| CCCOC(=O)CCCCCCCCC(O)CN1CCCCC1.Cl (centres unmarked) | 7.6% |
| COc1ccc(S(=O)(=O)N2CCCCC2)cc1NS(=O)(=O)c1cc(Cl)ccc1Cl | 9.48% |
| COC(=O)c1cc2ccccc2c(=O)s1 | 7.27% |
| O=C(CSCc1ccccc1)NCCc1ccc(F)cc1 | 12% |
| O=C(Nc1ccc(Cl)cc1)c1csc(-c2ccncc2)n1 | -9% |
| CN(C)c1ccc(C(=O)c2ccccc2)cc1 | 7.82% |

| Compound | hERG current change (%, negative = inhibition) at 1uM |
| --- | --- |
| c1ccc(-n2cnnc2SCc2nc3ccccc3s2)cc1 | 12.2% |
| O=C(CCc1nc(-c2ccccn2)no1)NCc1ccc2c(c1)OCO2 | 11.9% |
| COC(=O)c1cc(S(=O)(=O)Nc2ccc(C)cn2)c[nH]1 | 12% |
| Cn1nc([N+](=O)[O-])nc1N1CCOCC1 | 10.7% |
| CC(C)c1cc(-c2cc(C(=O)NCc3ccccc3)on2)nc(NCC2CC2)n1 | 16.6% |
| CC(=O)N/N=C(\C)c1ccc(Br)cc1Br | 5.2% |
| Cc1nc2c(-c3ccc(F)cc3)cnn2c(N)c1-c1ccc(F)cc1 | 18.9% |
| COc1ccc(NC(=O)c2cccc(NC(=O)c3ccco3)c2)c(OC)c1 | 6.09% |
| COc1ccc(S(=O)(=O)N2CCN(C(=O)CN3C(=O)NC(C)(c4ccc5ccccc5c4)C3=O)CC2)cc1 (centres unmarked) | -2.87% |
| O=Nc1c(O)c2ccccc2c2ccccc12 | 7.46% |
| N/C(CC(=O)Nc1cccc(C(F)(F)F)c1)=N/O | 7.74% |
| COc1ccc(-c2csc(/C(C#N)=C\c3cccc([N+](=O)[O-])c3)n2)cc1 | 14.9% |
| COc1ccc(Br)cc1/C=C/C(=O)Nc1ccc2ccccc2c1 | 15.7% |
| O=C(Nc1ccccc1C(F)(F)F)C1CCCC1 | 19% |
| CCOc1ccc(N(CC(=O)NC2CCCC2)C(=O)CCC(=O)Nc2ccccn2)cc1 | -22.3% |
| CC1=NNC(=O)C1CCC(=O)N/N=C(\C)c1ccc(Cl)cc1 (centres unmarked) | 5.43% |
| CCOC(=O)c1cncn1[C@@H](C)c1ccccc1 | 7.95% |
| COC(=O)CSC1=C(C#N)C(c2ccccc2)CC(=O)N1 (centres unmarked) | 25.1% |
| CCC(C)NC(=O)c1c(-c2cc(Cl)c(OC)c(Cl)c2)noc1C (centres unmarked) | 9.63% |
| CN(Cc1nc(C(c2ccccc2)c2ccccc2)no1)CC1COCCO1 (centres unmarked) | 6.99% |
| CCN(Cc1ccccc1)S(=O)(=O)c1ccc(C(=O)Nc2nnc(-c3ccccc3OC)o2)cc1 | 8.34% |
| CCN(CC)c1ccc(S(=O)(=O)N2CCOCC2)cc1NC(=O)C1CC1 | 3.92% |
